Test results taken from PubChem BioAssay AID662 (National Center for Advancing Translational Sciences (NCATS), 2007).
In all, about 71,000 compounds went through this assay and about 1,800 (2.5%) were called active. This list was built around the results that the source calls inconclusive (neither active nor inactive); the mix of calls is not that of the screen. The call rests on the fitted dose curve; in most records, active means well fitted activation curve with a large enough effect in the signal ratio, with a control signal flat (not every such curve was filed as active); inconclusive means small, poorly fitted or top-dose-only effect, or effect the other way, or a change in a side signal; inactive means flat fitted curve, though single readings scatter; the % refers to the signal ratio. Potencies beside an inconclusive call are fits to weak or partial responses and may not hold up.

Assay: Cell signaling CRE-BLA (Fsk stim); on activity change, negative = inhibition: % of control where 0% means no effect
Settings: CHO CRE-bla reporter (cAMP response element driving beta-lactamase), forskolin EC10, beta-lactamase ratio; activity change, negative = inhibition: at 38.2 µM (top of the series) unless noted
Description: NIH Molecular Libraries Screening Centers Network [MLSCN]
NIH Chemical Genomics Center [NCGC]
Assay Provider: Marshall W. Nirenberg, U.S. National heart lung & blood institute
Memories persist for different lengths of time, from seconds or minutes to a lifetime. There are two kinds of memory: short-term memory (STM) and long-term memory (LTM). STM lasts for minutes to hours, which maybe mediated by modifications of molecules involved in synaptic functions. LTM lasts for days or longer, and may be due to the formation of new synapses or restructuring of existing synapses. LTM, but not STM, requires gene transcription and synthesis of proteins. CREB (cyclic-AMP Responsive Element Binding Protein) is one of the candidates plays an important role for enhancement of some types of LTM. CREB, a family of transcription factors, regulates the transcription of genes containing cAMP Responsive Elements (CRE). CRE is a nucleotide sequence often found in the promoter regions of genes that are binding sites for CREB.
Using a beta-lactamase reporter-gene under control of cAMP responsive element, a cell-based assay [CellSensor(TM) CRE-bla CHO developed by Invitrogen Corp.] was used to measure forskolin-induced signaling. Library compounds were measured for their ability to modulate positively or negatively the action of EC10 NKH 477, a water soluble forskolin, on reporter gene activity. Compounds were screened in a titration series in 1536-well format. Positive and negative modulators were identified based on the AC50 values derived from the screening data.
NCGC Assay Protocol Summary
2000 cells/5uL in Opti-MEM medium containing 0.5% dialyzed FBS, 0.1 mM NEAA, 1 mM sodium pyruvate and 10 mM HEPES was dispensed into 1536-well plates and cells were cultured at 37 degrees Celsius overnight. […] And then the plates were incubated at 37 degrees Celsius for 3 hours. 1 uL of CCF4-dye mixture was added to each well. After incubated at room temperature for 2 hours the plates were measured on an EnVision plate reader at Excitation 405nm, Emission1=460nm and Emission 2=530nm. The %Activity was determined from the ratio of 460nm/530nm.
Keywords: NIH Roadmap, MLSCN, MLSMR, qHTS, NCGC, CRE, beta-lactamase reporter-gene assay.
Potency means the concentration at half of the fitted maximal effect; tags describe the fitted curve by direction and shape.

Structure (SMILES)	Potency	activity change, negative = inhibition
COc1ccc(CCNS(=O)(=O)c2ccc3c(c2)CCN3C(=O)CCC(=O)O)cc1OC	inconclusive: 0.316 µM [rising, partial curve]	
Cc1c(C(=O)Nc2c(C)n(C)n(-c3ccccc3)c2=O)oc2ccccc12	inconclusive: 3.16 µM [rising, full curve]	
CCCc1cc2c(c(NC(C)=O)n1)c(=O)oc1ccccc12	inconclusive: 0.501 µM [rising, full curve]	
C=C(C)Cn1c(Sc2nnc(C)s2)nc2c1c(=O)[nH]c(=O)n2C		inconclusive: 6.3%
Cc1cc(-c2ccccc2)c(C#N)c(SCC(N)=O)n1		inconclusive: 20%
N#Cc1nc(COc2ccc(-c3ccccc3)cc2)oc1NCc1cccnc1	inconclusive: 3.98 µM [rising, partial curve]	
COc1cc(SC)ccc1C(=O)NCC1CCCO1 (stereo not given)		inactive
CCCCCCn1c(CN2CCN(CCO)CC2)nc2c1c(=O)n(C)c(=O)n2C	inconclusive: 10 µM [rising, partial curve]	
CC(=O)[C@@]1(O)CC[C@@H]2[C@@H]3CCC4=CC(=O)CC[C@@]4(C)[C@H]3CC[C@]21C		inactive
Cc1ccc2[nH]c(=O)c(CN(CCCN3CCOCC3)Cc3nnnn3C3CCCC3)cc2c1		inactive
C=CCNc1nc(-c2ccccc2)nc(-n2ccnc2)n1	inconclusive: 10 µM [rising, partial curve]	
CCC(=O)Nc1c(C#N)c2nc3ccccc3nc2n1-c1ccccc1C	inconclusive: 10 µM [rising, partial curve]	
Cc1ccc(-n2nc(-c3cccs3)cc2C(=O)NCC2CCCO2)c(C)c1 (stereo not given)	inconclusive: 5.01 µM [falling, single point]	
CCN1CCCC1CNC(=O)C(NC(=O)C1CCC(C)CC1)C(C)C (stereo not given)		inconclusive: 26%
Brc1ccccc1-c1nnc(-c2cccnc2)o1		inactive
CCOc1cccc(OCCOCCN(C)Cc2ccccc2)c1		inconclusive: -5.86% [at 7.6 µM]
Cn1c(=O)c(-c2cc(F)cc(F)c2)nc2cnc(N3CCNCC3)nc21	inconclusive: 1 µM [rising, partial curve]	
CCSc1nc2c(c(=O)[nH]c(=O)n2C)n1C/C=C(/C)Cl	active: 2.51 µM	
O=C(NCc1cccc(C(F)(F)F)c1)C1CCN(c2ncccn2)CC1		inactive
CCc1c(C)nc2ncnn2c1N1CCCC(C(=O)NCCc2ccccc2)C1 (stereo not given)		inconclusive: 29.6%
CCOc1cccc(NC(=O)C2CC(=O)N(C)C(=Nc3cccc(F)c3)S2)c1 (stereo not given)		inconclusive: -5.45%
Cc1ccc(C(=O)OCC(=O)Nc2sc3c(c2C#N)CCCCC3)cc1NC(=O)c1ccco1	inconclusive: 5.01 µM [falling, single point]	
COc1ccc(CCNc2oc(COc3ccc(F)cc3)nc2C#N)cc1		inactive
Cc1cc(NC(=O)c2cc3nc(C4CC4)cc(C(F)(F)F)n3n2)no1		inconclusive: 17.9%
O=C(NCc1ccccn1)c1ccc(CS(=O)(=O)Cc2ccc(Cl)cc2)o1		inactive
CCOc1ccccc1-n1nnnc1SCc1nc2ccccc2s1		inactive
NS(=O)(=O)c1ccc(NC(=O)CSc2nnc(Cc3cccs3)n2-c2ccccc2)cc1		inconclusive: -15.9%

Structure (SMILES)	Potency	activity change, negative = inhibition
O=C(c1ccco1)N1CCN(Cc2cccc(F)c2)CC1		inconclusive: -6.67%
COc1ccc(CCN2C(=O)c3[nH]nc(-c4ccccc4O)c3C2c2ccc(C)cc2)cc1OC (stereo not given)		inconclusive: -1.97%
CCOC(=O)C1C(=O)NC(N2CCOCC2)=NC1c1ccco1 (stereo not given)		inactive
Cc1ccc2nsnc2c1S(=O)(=O)N1CCN(Cc2ccc3c(c2)OCO3)CC1		inactive
CCOC(=O)c1c(C)oc2ccc(OC(=O)N3CCOCC3)cc12	inconclusive: 12.6 µM [rising, partial curve]	
O=C(C1CC1)n1cc(C(=S)N2CCOCC2)c2ccccc21	inconclusive: 10 µM [rising, single point]	
CCOc1ccccc1NC(=O)CSc1nc2c(c(=O)n1C)SC(C)C2 (stereo not given)		inactive
Cc1ccc(S(=O)(=O)n2nc(C)c(Br)c2C)c(C)c1C		inconclusive: 24.8%
Cc1ccccc1-c1ccc2ncnc(NCCN3CCOCC3)c2c1		inconclusive: 24.8%
CCC1CCCCN1Cc1nc2c(c(=O)n(C)c(=O)n2C)n1CCCc1ccccc1 (stereo not given)	inconclusive: 25.1 µM [rising, single point]	
O=C(CCC1CCCC1)c1c(O)c2ccccc2oc1=O		inconclusive: -19%
CCOC(=O)c1[nH]c(CSc2nnnn2-c2ccccc2C)c(C(=O)OCC)c1C	active: 2.51 µM	
Cc1ccc2cc(C(c3nnnn3C3CCCC3)N(Cc3ccccc3)Cc3ccco3)c(=O)[nH]c2c1 (stereo not given)		inactive
CC1(c2ccccc2)CC(c2ccccc2)=Nc2nonc2N1 (stereo not given)		inconclusive: 7.82%
CC(=O)c1cccc(NC(=O)c2cc3nc(C)cc(C)n3n2)c1	inconclusive: 12.6 µM [rising, single point]	
COc1ccccc1N1CCN(CC(=O)c2c(C)[nH]c3cc(C)ccc23)CC1		inconclusive: 9.92%
COc1c(Br)cc2c(C)c(C(=O)N3CCOCC3)oc2c1Br	inconclusive: 10 µM [rising, partial curve]	
COc1ccc(Br)cc1/C=c1\sc2nc(-c3ccco3)nn2c1=O		inactive
CCOC(=O)N1CCN(C(=O)c2ccc(C)c(S(=O)(=O)Nc3ccccc3)c2)CC1		inactive
CCOc1ccc2[nH]c(=O)c(CN(Cc3cccnc3)C(=O)Nc3ccccc3OC)cc2c1	inconclusive: 20 µM [rising, single point]	
C[C@@H](CC(=O)O)[C@@H](N)C(=O)O		inactive
CN1CCN(c2ncc3nc(-c4cc(F)cc(F)c4)c(=O)n(CCC#N)c3n2)CC1	inconclusive: 2.51 µM [rising, full curve]	
NS(=O)(=O)c1cccc2c1c([N+](=O)[O-])cc1[nH]c(=O)c(=O)[nH]c12		inconclusive: -6.94%
COc1ccc2cc3cc(C(=O)NCCN4CCc5ccccc5C4)oc3nc2c1		inconclusive: -11.1%
O=C(Nc1ccccc1)N1CCC2(CC1)CCN(C(=O)c1csnn1)CC2		inactive
CCCC(c1nnnn1CC(=O)OCC)N(Cc1cc2c(C)cc(C)cc2[nH]c1=O)C1CCCC1 (stereo not given)		inactive
Cc1noc(C)c1C(=O)NCc1ccco1		inconclusive: -5.44%

Structure (SMILES)	Potency	activity change, negative = inhibition
O=C(CN1C(=O)NC2(CCc3ccccc32)C1=O)c1ccc2c(c1)OCCO2 (stereo not given)		inactive
CCOCCCNC(=O)C(NC(=O)c1ccccn1)c1ccc(C)cc1 (stereo not given)	inconclusive: 2.51 µM [rising, single point]	
Cc1ccc(-c2noc(CCC(=O)Nc3cccc(C#N)c3)n2)cc1		inconclusive: -24.9%
CCn1c(SCC(=O)Nc2cc(NC(C)=O)ccc2OC)nnc1-c1cccnc1		inactive
CC1CCCCN1C(=O)c1cnn2c(C(F)(F)F)cc(-c3ccco3)nc12 (stereo not given)		inconclusive: 25.9%
CCC(Oc1ccccc1)C(=O)Nc1ccc(-c2nnc(-c3ccco3)o2)cc1 (stereo not given)	inconclusive: 12.6 µM [rising, single point]	
COC(=O)C1=C(C)NC(C)=C(C(=O)OC)C1C(=O)OCCN1C(=O)c2ccccc2C1=O		inconclusive: 5.79%
CCNc1ncc2nc(-c3cc(F)cc(F)c3)c(=O)n(C3CC3)c2n1	inconclusive: 2.51 µM [rising, full curve]	
COC(=O)[C@@]1(Cc2ccccc2)[C@H]2c3cc(C(=O)N4CCCC4)n(Cc4ccc(O)c(OC)c4)c3C[C@H]2CN1C(=O)c1ccccc1		inconclusive: 6.49%
N#Cc1c(SCC(N)=O)nc2c(c1-c1ccc(O)cc1)CCCC2	inconclusive: 12.6 µM [rising, single point]	
COc1cc(C(=O)NCCC(=O)NC2CCCCCCC2)cc(OC)c1OC		inconclusive: 28.8%
CCCCN(CCCNC(=O)C1CCN(S(=O)(=O)N2CCOCC2)CC1)c1ccccc1		inactive
CCSc1nc(-c2ccc(OC)cc2)ccc1C#N	inconclusive: 25.1 µM [rising, single point]	
Clc1ccc(OCCCn2cncn2)cc1Cl		inconclusive: -5.76%
COc1ccc(C2=NOC(C(=O)Nc3cc(C)nn3-c3ccccc3)C2)cc1OC (stereo not given)	active: 2.51 µM	
CCOc1nc(C)ccc1-c1noc(-c2ccco2)n1	inconclusive: 10 µM [rising, partial curve]	
CCCc1cc(=O)[nH]c(SCC(=O)OCc2ccccc2)n1		inactive
C[C@@H](COc1ccccc1)N(CCCl)Cc1ccccc1		inactive
Cc1nc(-c2ccccc2)sc1C(N)=O		inconclusive: 6.29%
O=C(O)[C@@H](O)[C@@H](O)[C@@H](O[C@H]1O[C@@H](CO)[C@@H](O)[C@@H](O)[C@@H]1O)[C@@H](O)CO		inactive
Cc1cccc(Cn2c(SCC(=O)Nc3ccccc3)nc3c2c(=O)[nH]c(=O)n3C)c1	inconclusive: 12.6 µM [rising, single point]	
Cc1c(NC(=O)COC(=O)c2cc3c4ccccc4n(C)c3s2)c(=O)n(-c2ccccc2)n1C		inconclusive: -4.8%
Cc1ccc(C(=O)C2=C(O)C(=O)N(CCCN(C)C)C23C(=O)N(C)c2ccccc23)o1 (stereo not given)		inconclusive: -18.5%
CCOC(=O)c1sc(=NC(=O)c2cccc(OC)c2)n(C)c1C		inactive
Nc1nc(SCc2ccccc2)[nH]c(=O)c1-c1ccccc1		inconclusive: 24%
CCc1c(C)c(C#N)c2nc3ccccc3n2c1Nc1c(C)n(C)n(-c2ccccc2)c1=O	inconclusive: 12.6 µM [rising, single point]	
